# Measured values from a collection of fitness landscapes (doi:10.1016/j.celrep.2020.107928).
# The full ranking holds about 81,000 sequences; the median of “one-hybrid fitness for binding parS DNA” is about -0.17, and the highest 2% start at about 0.51. Some of the results follow.
# B1: Caulobacter ParB omega fusion; a variant is named by its letters at X, in order, B8GW30 (parent)
# chain: MESVVVGEPGMSEGRRGLGRGLSALLGEVDAAPAQAPGEQLGGSREAPIEILQRNPDQPRRTFREEDLEDLSNSIREKGVLQPILVRPSPDTAGEYQIVAGERAWRAAQRAGLKTVPIMVRELDDLAVLEIGIIENVQRADLNVLEEALSYKVLMEKFERTQENIAQTIGKSXSHVANXMRLLXLPDEVQSYLVSGELTAXHARAIAAAADPVALAKQIIEGGLSVRETEALARKAPNLSAGKSKGGRPPRVKDTDTQALESDLSSVLGLDVSIDHRGSTGTLTITYATLEQLDDLCNRLTRGI
# Variants of: B1
# Test: one-hybrid fitness for binding parS DNA (scaled: cognate 1, non-cognate 0); higher = stronger binding
# Settings: with parS DNA site
# Summary of the method: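 Fitness here means the log change in variant-to-wild-type read ratio between plasmids sequenced before and after selection. That scale was set so cognate equals 1 and non-cognate equals 0. The selection was a bacterial one-hybrid screen of Caulobacter ParB libraries, four specificity codons randomised, in E. coli USO carrying a HIS3 reporter with the site 19 bp from the promoter, grown 48 hours at 37°C on M9-minus-histidine with 0.1 mM IPTG and 5 mM 3-AT.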
row,Variant,one-hybrid fitness for binding parS DNA
1,AHQF,≤ 0.2
2,GLIL,≤ 0.2
3,MSRH,≤ 0.2
4,RFHF,≤ 0.2
5,DRWL,≤ 0.2
6,SALI,≤ 0.2
7,VVFR,≤ 0.2
8,GNPC,≤ 0.2
9,MGPV,≤ 0.2
10,RDIG,≤ 0.2
11,AFRH,≤ 0.2
12,SQKR,≤ 0.2
13,LRPA,≤ 0.2
14,SRMI,≤ 0.2
15,LSVY,≤ 0.2
16,YSCE,≤ 0.2
17,KMIK,≤ 0.2
18,SRNN,≤ 0.2
19,MTHA,≤ 0.2
20,RECC,≤ 0.2
21,HRDQ,≤ 0.2
22,FDSW,≤ 0.2
23,QRSE,≤ 0.2
24,TFDK,≤ 0.2

row,Variant,one-hybrid fitness for binding parS DNA
1,LIAT,≤ 0.2
2,AGQN,≤ 0.2
3,RFPS,0.551
4,NRWC,≤ 0.2
5,MVSE,≤ 0.2
6,PSPE,≤ 0.2
7,ANNL,≤ 0.2
8,DWEL,≤ 0.2
9,FWPW,≤ 0.2
10,SPQR,≤ 0.2
11,CDPS,≤ 0.2
12,LTTC,≤ 0.2
13,AREC,≤ 0.2
14,SDKW,≤ 0.2
15,KTNI,≤ 0.2
16,CIWR,≤ 0.2
17,TIAL,≤ 0.2
18,VHGG,≤ 0.2
19,SFVS,≤ 0.2
20,NIVV,≤ 0.2
21,EQYP,≤ 0.2
22,VWAF,≤ 0.2
23,AEPI,≤ 0.2
24,RNPS,0.478

row,Variant,one-hybrid fitness for binding parS DNA
1,GPIT,≤ 0.2
2,IYQG,≤ 0.2
3,GTQR,≤ 0.2
4,YICG,≤ 0.2
5,LTYL,≤ 0.2
6,LNVP,≤ 0.2
7,SSAV,≤ 0.2
8,DVRV,≤ 0.2
9,RNRC,0.893
10,WTRC,≤ 0.2
11,WNKT,≤ 0.2
12,DKVS,≤ 0.2
13,CRVG,≤ 0.2
14,KRCW,≤ 0.2
15,THDY,≤ 0.2
16,RREI,≤ 0.2
17,YFSY,≤ 0.2
18,QVTD,≤ 0.2
19,SFEW,≤ 0.2
20,DNMC,≤ 0.2
21,ANES,≤ 0.2
22,HQSD,0.269
23,NEYG,≤ 0.2
24,VFNT,≤ 0.2

row,Variant,one-hybrid fitness for binding parS DNA
1,NSLC,≤ 0.2
2,SRGT,≤ 0.2
3,RGNA,0.394
4,RWVN,≤ 0.2
5,RCPW,≤ 0.2
6,MRCF,≤ 0.2
7,ASAE,≤ 0.2
8,CWVT,≤ 0.2
9,ARGQ,≤ 0.2
10,VFTK,≤ 0.2
11,MNYR,≤ 0.2
12,FAAS,≤ 0.2
13,IHCL,≤ 0.2
14,ADVR,≤ 0.2
15,PNGC,≤ 0.2
16,NHAC,≤ 0.2
17,VKGT,≤ 0.2
18,IFPY,≤ 0.2
19,PLTF,≤ 0.2
20,GYQT,≤ 0.2
21,MYPT,≤ 0.2
22,HIYT,≤ 0.2
23,EPRF,≤ 0.2
24,YTQG,≤ 0.2

row,Variant,one-hybrid fitness for binding parS DNA
1,RDCW,≤ 0.2
2,ALDN,≤ 0.2
3,TAAP,≤ 0.2
4,PYAR,≤ 0.2
5,LDHY,≤ 0.2
6,ERPW,≤ 0.2
7,FNCC,≤ 0.2
8,QEAE,≤ 0.2
9,TLPG,≤ 0.2
10,VRVT,≤ 0.2
11,FDDS,≤ 0.2
12,DANG,≤ 0.2
13,FHIF,≤ 0.2
14,MYWS,≤ 0.2
15,GPWC,≤ 0.2
16,HMDM,≤ 0.2
17,ESMT,≤ 0.2
18,DFNG,≤ 0.2
19,EMGS,≤ 0.2
20,VFLS,≤ 0.2
21,VTYR,≤ 0.2
22,ASAM,≤ 0.2
23,HHSM,≤ 0.2
24,RVYA,0.64

row,Variant,one-hybrid fitness for binding parS DNA
1,MHNT,≤ 0.2
2,RAAR,≤ 0.2
3,EPFW,≤ 0.2
4,KLMG,≤ 0.2
5,KAHV,≤ 0.2
6,TMTT,≤ 0.2
7,WVYT,≤ 0.2
8,PCKR,≤ 0.2
9,LFTR,≤ 0.2
10,QPNG,≤ 0.2
11,VVTN,≤ 0.2
12,CTDW,≤ 0.2
13,GERC,≤ 0.2
14,VCTK,≤ 0.2
15,RMIH,0.223
16,QAPA,≤ 0.2
17,WNKP,0.274
18,PCRC,≤ 0.2
19,CMNM,≤ 0.2
20,QANY,≤ 0.2
21,PKPV,≤ 0.2
22,RMSC,0.956
23,FWMC,≤ 0.2
24,YDSG,≤ 0.2

row,Variant,one-hybrid fitness for binding parS DNA
1,WRDR,≤ 0.2
2,TWNR,≤ 0.2
3,FILT,≤ 0.2
4,ETYS,≤ 0.2
5,MTPE,≤ 0.2
6,CPPS,≤ 0.2
7,DAHV,≤ 0.2
8,ARSE,≤ 0.2
9,NWRD,≤ 0.2
10,AMTI,≤ 0.2
11,FPFL,≤ 0.2
12,ITHR,≤ 0.2
13,CLVH,≤ 0.2
14,CRYS,≤ 0.2
15,HQFL,≤ 0.2
16,IYRG,≤ 0.2
17,YSNL,≤ 0.2
18,SHLR,≤ 0.2
19,YILL,≤ 0.2
20,PKGA,≤ 0.2
21,RNWC,0.569
22,TLHR,≤ 0.2
23,AWLS,≤ 0.2
24,KTGT,≤ 0.2

row,Variant,one-hybrid fitness for binding parS DNA
1,QYGS,≤ 0.2
2,ISMK,≤ 0.2
3,PADG,≤ 0.2
4,PNDE,≤ 0.2
5,QAPM,≤ 0.2
6,KTKL,≤ 0.2
7,QTDL,≤ 0.2
8,DDIR,≤ 0.2
9,LFYI,≤ 0.2
10,NGYS,≤ 0.2
11,TPSA,≤ 0.2
12,HKVM,≤ 0.2
13,YPRT,≤ 0.2
14,NRKA,≤ 0.2
15,PDIR,≤ 0.2
16,QCHG,≤ 0.2
17,AKMS,≤ 0.2
18,GSPF,≤ 0.2
19,VLLS,≤ 0.2
20,QYMC,≤ 0.2
21,TYCY,≤ 0.2
22,STKN,≤ 0.2
23,QNAL,≤ 0.2
24,IDYA,≤ 0.2

row,Variant,one-hybrid fitness for binding parS DNA
1,HRPP,≤ 0.2
2,YFMR,≤ 0.2
3,QHKQ,≤ 0.2
4,KWGS,≤ 0.2
5,NVRS,≤ 0.2
6,QINC,≤ 0.2
7,LRHI,≤ 0.2
8,PLIL,≤ 0.2
9,TRRQ,≤ 0.2
10,VHAC,≤ 0.2
11,ELPI,≤ 0.2
12,CLMI,≤ 0.2
13,MVNK,≤ 0.2
14,QSYK,≤ 0.2
15,QNEV,≤ 0.2
16,PLND,≤ 0.2
17,CGLF,≤ 0.2
18,WARG,≤ 0.2
19,DNHS,≤ 0.2
20,HAAA,≤ 0.2
21,RQNR,≤ 0.2
22,CYES,≤ 0.2
23,HNCS,≤ 0.2
24,NTCS,≤ 0.2

row,Variant,one-hybrid fitness for binding parS DNA
1,LWHG,≤ 0.2
2,MRTP,≤ 0.2
3,FSKC,≤ 0.2
4,FNIT,≤ 0.2
5,ASRC,≤ 0.2
6,RFYT,0.801
7,PDGY,≤ 0.2
8,TLKI,≤ 0.2
9,QQTD,≤ 0.2
10,CGQR,≤ 0.2
11,SFLC,≤ 0.2
12,RHYL,≤ 0.2
13,LSHW,≤ 0.2
14,PSQN,≤ 0.2
15,CGIR,≤ 0.2
16,GSNV,≤ 0.2
17,EGHS,≤ 0.2
18,LSVQ,≤ 0.2
19,NVRN,≤ 0.2
20,NSRE,≤ 0.2
21,GGTV,≤ 0.2
22,ATQC,≤ 0.2
23,TWQR,≤ 0.2
24,IFPR,≤ 0.2

row,Variant,one-hybrid fitness for binding parS DNA
1,HRIR,≤ 0.2
2,TMIN,≤ 0.2
3,FKSC,≤ 0.2
4,RDNC,≤ 0.2
5,GNNC,≤ 0.2
6,VMNT,≤ 0.2
7,AERM,≤ 0.2
8,VYNS,≤ 0.2
9,ETDS,≤ 0.2
10,LSME,≤ 0.2
11,AIKR,≤ 0.2
12,HHVT,≤ 0.2
13,IYAV,≤ 0.2
14,YFTG,≤ 0.2
15,NCIG,≤ 0.2
16,WSMS,≤ 0.2
17,SVRW,≤ 0.2
18,LPNR,≤ 0.2
19,PMRN,≤ 0.2
20,RFYC,0.867
21,QDMY,≤ 0.2
22,PNVW,≤ 0.2
23,AMDV,≤ 0.2
24,VHTA,≤ 0.2

row,Variant,one-hybrid fitness for binding parS DNA
1,KPWS,≤ 0.2
2,HGPV,≤ 0.2
3,VTFI,≤ 0.2
4,DSLA,≤ 0.2
5,AFPY,≤ 0.2
6,GYLG,≤ 0.2
7,ECQL,≤ 0.2
8,IRYE,≤ 0.2
9,RPQM,≤ 0.2
10,IVTP,≤ 0.2
11,RLLN,0.44
12,VNVR,≤ 0.2
13,LAHT,≤ 0.2
14,NPVR,≤ 0.2
15,RHAM,0.28
16,NMCG,≤ 0.2
17,SACF,≤ 0.2
18,LWDS,≤ 0.2
19,CGCR,≤ 0.2
20,TCGG,≤ 0.2
21,QFPP,≤ 0.2
22,IVFV,≤ 0.2
23,SDDG,≤ 0.2
24,QIKR,≤ 0.2

row,Variant,one-hybrid fitness for binding parS DNA
1,RDWI,≤ 0.2
2,TWRK,≤ 0.2
3,EHGR,≤ 0.2
4,DIDF,≤ 0.2
5,SNLQ,≤ 0.2
6,PGIG,≤ 0.2
7,LRYS,≤ 0.2
8,RYCL,≤ 0.2
9,QQPW,≤ 0.2
10,HAKK,≤ 0.2
11,TQSS,≤ 0.2
12,NYYG,≤ 0.2
13,SPNW,≤ 0.2
14,DQGR,≤ 0.2
15,HDWG,≤ 0.2
16,QKWF,≤ 0.2
17,DAAM,≤ 0.2
18,YIWS,≤ 0.2
